{"source": "PubChem BioAssay (Tox21)", "note": "This list was built around the results that the source calls inconclusive (neither active nor inactive); the mix of calls is not that of the screen. Potencies of inconclusive entries are left out as doubtful fits. Activity calls are given as the source filed them. Calls follow the shape of the dose curve; as a rule, active = well fitted cell-killing curve with a large enough effect in the repeat runs; inconclusive = weak or mixed curves, or effect the other way; inactive = flat fitted curve, though single readings scatter. Potency is read from the fitted curve at half-maximal effect; tags tell the direction and shape of the fitted curve.", "data": [{"test": "qHTS assay to identify small molecule antagonists of the estrogen receptor alpha (ER-alpha) signaling pathway using the BG1 cell line - cell viability counter screen (AID 743081);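 also: compound given together with 17beta-estradiol as the ER stimulus; nearly all actives have a fitted effect of over 45% in size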", "settings": "BG1Luc4E2 viability, CellTiter-Fluor, 22 h; series mostly up to 70.3 µM", "values": [{"smiles": "CC(=O)Oc1cccc(C(=O)O)c1OC(C)=O", "Potency": "inactive"}, {"smiles": "CCC(=O)NS(=O)(=O)c1ccc(-c2c(-c3ccccc3)noc2C)cc1", "Potency": "inconclusive [rising, partial curve, poor fit]"}, {"smiles": "CCCCCCCCCCCCCCCCCC(=O)OCC(C)O", "note": "(centres undefined)", "Potency": "active: 21.1 µM"}, {"smiles": "CC(C)C[C@H](NC(=O)[C@@H](COC(C)(C)C)NC(=O)[C@H](Cc1ccc(O)cc1)NC(=O)[C@H](CO)NC(=O)[C@H](Cc1c[nH]c2ccccc12)NC(=O)[C@H](Cc1cnc[nH]1)NC(=O)[C@@H]1CCC(=O)N1)C(=O)N[C@@H](CCCN=C(N)N)C(=O)N1CCC[C@H]1C(=O)NNC(N)=O", "Potency": "inactive"}, {"smiles": "C/C(=C(/CCO)SSCC1CCCO1)N(C=O)Cc1cnc(C)nc1N", "note": "(centres undefined)", "Potency": "inconclusive [cytotoxic, partial curve, poor fit]"}, {"smiles": "C[N+](C)(C)CCOP(=O)(O)OP(=O)([O-])OC[C@H]1O[C@@H](n2ccc(N)nc2=O)[C@H](O)[C@@H]1O", "Potency": "inconclusive [rising, full curve, poor fit]"}, {"smiles": "CS(=O)(=O)OCCCNCCCOS(C)(=O)=O", "Potency": "inconclusive [cytotoxic, single point]"}, {"smiles": "O=P(O)(O)C(O)(Cc1cnc2ccccn12)P(=O)(O)O", "Potency": "inconclusive [cytotoxic, full curve, poor fit]"}, {"smiles": "CCCCCCCCCCCCCCCC(=O)OCCC1CCN(CCCN2c3ccccc3Sc3ccc(S(=O)(=O)N(C)C)cc32)CC1", "Potency": "inconclusive [cytotoxic, partial curve, poor fit]"}]}]}
